These are yes or no findings as the source states them, for the method shown. Some entries that bind do so weakly or less than the wild type. Where a sequence is shown, tags or fusion partners need not be part of it.
T1: Sec23 (binding domain-fused) (S. cerevisiae) (UniProt P15303)
T1 sequence: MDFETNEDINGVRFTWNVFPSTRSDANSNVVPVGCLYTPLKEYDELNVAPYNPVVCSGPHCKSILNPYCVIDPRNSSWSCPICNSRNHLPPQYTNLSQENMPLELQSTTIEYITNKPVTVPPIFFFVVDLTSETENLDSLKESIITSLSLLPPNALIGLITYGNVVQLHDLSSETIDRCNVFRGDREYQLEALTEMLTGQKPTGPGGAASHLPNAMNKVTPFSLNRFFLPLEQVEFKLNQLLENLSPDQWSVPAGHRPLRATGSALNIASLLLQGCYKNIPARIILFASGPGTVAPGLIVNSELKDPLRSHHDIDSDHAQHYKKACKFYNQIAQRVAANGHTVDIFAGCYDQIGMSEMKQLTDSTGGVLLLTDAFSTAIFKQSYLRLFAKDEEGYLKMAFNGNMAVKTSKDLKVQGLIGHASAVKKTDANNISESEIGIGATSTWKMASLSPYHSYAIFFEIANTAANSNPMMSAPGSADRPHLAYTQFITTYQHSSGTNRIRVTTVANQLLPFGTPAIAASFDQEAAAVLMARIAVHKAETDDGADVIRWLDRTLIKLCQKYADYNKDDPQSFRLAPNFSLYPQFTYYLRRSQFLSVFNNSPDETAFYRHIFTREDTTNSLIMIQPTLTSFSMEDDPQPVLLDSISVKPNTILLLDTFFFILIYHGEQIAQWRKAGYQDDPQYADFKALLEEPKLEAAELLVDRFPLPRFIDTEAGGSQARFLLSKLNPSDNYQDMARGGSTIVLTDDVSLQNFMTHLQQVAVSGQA

B1: Sec16 fragment 1639–2195 Δ1856–1967 (activation domain-fused) (domain or fragment, UniProt P48415)
chain: MYSPSVEALPIDPVVPQVHETGYNDFGNKHSQKSMPEDESHTSHDNSNADQNTLKDSADVTDETMDIEGPGFNDVKNLLPMEPNHQPTSTVNPIQTISDDIQPILQTNVEVRGTDASKMENSLPSIENERSSEEQPENISKSASSAYLPSTGGLSLENRPLTQDENSISETVQSTYLPAGSISMEAKPISQVQDVPRNVNNKASKLVEQHMAPPKPKFKPLESDADKYNDVIEDESDDDNMSTDEAKNRKEEKKNVNMKKETKPSNKDIDDKSNGWFGWLKKDTGDKKVYKAKLGHKNTLYYDEKLKRWVNKDATEEEKQKIIESSAPPPPPIVKRKDGGPKTKPRSGPINNSLPPVHATSVIPNNPITGEPLPIKTSPSPTGPNPNNSPSPSSPISRISGVNLTSKKANGLDDLLSLAGGPKPASTRRKKKTARGYVNVMDNIQ
B2: Sec16 fragment 1968–2195 (activation domain-fused) (domain or fragment, UniProt P48415 1968-2195)
chain: FKPLESDADKYNDVIEDESDDDNMSTDEAKNRKEEKKNVNMKKETKPSNKDIDDKSNGWFGWLKKDTGDKKVYKAKLGHKNTLYYDEKLKRWVNKDATEEEKQKIIESSAPPPPPIVKRKDGGPKTKPRSGPINNSLPPVHATSVIPNNPITGEPLPIKTSPSPTGPNPNNSPSPSSPISRISGVNLTSKKANGLDDLLSLAGGPKPASTRRKKKTARGYVNVMDNIQ
B3: Sec16 fragment 1639–1967 (activation domain-fused) (domain or fragment, UniProt P48415 1639-1967)
chain: MYSPSVEALPIDPVVPQVHETGYNDFGNKHSQKSMPEDESHTSHDNSNADQNTLKDSADVTDETMDIEGPGFNDVKNLLPMEPNHQPTSTVNPIQTISDDIQPILQTNVEVRGTDASKMENSLPSIENERSSEEQPENISKSASSAYLPSTGGLSLENRPLTQDENSISETVQSTYLPAGSISMEAKPISQVQDVPRNVNNKASKLVEQHMAPPKPKSTDATKMNYSPYVPQSTAASADGDESTILKTSPAIYARTHQAHASNPSQYFPLVNQANETASFELSESTSQAQSNGNVASENRFSPIKKAEVVEKDTFQPTIRKASTNQYRA
B4: Sec16 fragment 1639–2195 (activation domain-fused) (domain or fragment, UniProt P48415 1639-2195)
chain: MYSPSVEALPIDPVVPQVHETGYNDFGNKHSQKSMPEDESHTSHDNSNADQNTLKDSADVTDETMDIEGPGFNDVKNLLPMEPNHQPTSTVNPIQTISDDIQPILQTNVEVRGTDASKMENSLPSIENERSSEEQPENISKSASSAYLPSTGGLSLENRPLTQDENSISETVQSTYLPAGSISMEAKPISQVQDVPRNVNNKASKLVEQHMAPPKPKSTDATKMNYSPYVPQSTAASADGDESTILKTSPAIYARTHQAHASNPSQYFPLVNQANETASFELSESTSQAQSNGNVASENRFSPIKKAEVVEKDTFQPTIRKASTNQYRAFKPLESDADKYNDVIEDESDDDNMSTDEAKNRKEEKKNVNMKKETKPSNKDIDDKSNGWFGWLKKDTGDKKVYKAKLGHKNTLYYDEKLKRWVNKDATEEEKQKIIESSAPPPPPIVKRKDGGPKTKPRSGPINNSLPPVHATSVIPNNPITGEPLPIKTSPSPTGPNPNNSPSPSSPISRISGVNLTSKKANGLDDLLSLAGGPKPASTRRKKKTARGYVNVMDNIQ
B5: Sec16 fragment 1639–1996 (activation domain-fused) (domain or fragment, UniProt P48415 1639-1996)
chain: MYSPSVEALPIDPVVPQVHETGYNDFGNKHSQKSMPEDESHTSHDNSNADQNTLKDSADVTDETMDIEGPGFNDVKNLLPMEPNHQPTSTVNPIQTISDDIQPILQTNVEVRGTDASKMENSLPSIENERSSEEQPENISKSASSAYLPSTGGLSLENRPLTQDENSISETVQSTYLPAGSISMEAKPISQVQDVPRNVNNKASKLVEQHMAPPKPKSTDATKMNYSPYVPQSTAASADGDESTILKTSPAIYARTHQAHASNPSQYFPLVNQANETASFELSESTSQAQSNGNVASENRFSPIKKAEVVEKDTFQPTIRKASTNQYRAFKPLESDADKYNDVIEDESDDDNMSTDEA
B6: Sec16 fragment 1856–2195 (activation domain-fused) (domain or fragment, UniProt P48415 1856-2195)
chain: STDATKMNYSPYVPQSTAASADGDESTILKTSPAIYARTHQAHASNPSQYFPLVNQANETASFELSESTSQAQSNGNVASENRFSPIKKAEVVEKDTFQPTIRKASTNQYRAFKPLESDADKYNDVIEDESDDDNMSTDEAKNRKEEKKNVNMKKETKPSNKDIDDKSNGWFGWLKKDTGDKKVYKAKLGHKNTLYYDEKLKRWVNKDATEEEKQKIIESSAPPPPPIVKRKDGGPKTKPRSGPINNSLPPVHATSVIPNNPITGEPLPIKTSPSPTGPNPNNSPSPSSPISRISGVNLTSKKANGLDDLLSLAGGPKPASTRRKKKTARGYVNVMDNIQ

Each binder was assayed against T1, Sec23 (binding domain-fused) (S. cerevisiae) (assay: two-hybrid; Gal4 activation domain-fused Sec16 fragments (pGAD-C1) with Gal4 DNA-binding domain-fused Sec23, Sed4C, Sec12C or Sec12C chimeras (pGBDU-C1); growth on plates lacking histidine, leucine and uracil at 30°C for 4 days).

Row | binding | Binder
1 | binds | B1
2 | binds | B2
3 | no binding | B3
4 | binds | B4
5 | no binding | B5
6 | binds | B6
